PubChem BioAssay AID1918999 (Molecular Pharmacology Branch, DTP, NCI, 2023)
Certain results were filed several times, with different values. Only these are listed. An entry can have further records. The records of an entry are repeats (runs, samples, wells, individuals or studies). Signs of the kind (2×) give the number of equal values in this list.

System: 556581-035-R-J1-PDC complex spheroid growth
Test: Anticancer human tumor 556581-035-R-J1-PDC patient-derived ovarian carcinoma cell line growth inhibition [AhR]
Conditions: stronger effect = lower value
Source text: Multicellular complex tumor spheroid response to aryl hydrocarbon receptor antagonists in combination with a variety of drugs and investigational agents in selected tumor cell lines
The current study was undertaken to assess response to aryl hydrocarbon receptor antagonists in combination with standard-of-care drugs and investigational agents in solid tumor complex spheroid models. Complex spheroids include a stromal component modeled by human endothelial cells (HUVEC) and fibroblasts modeled by human mesenchymal stem cells (MSCs). The concentration ranges selected for each drug and investigational agent were based upon clinically achievable concentrations if the clinical Cmax of the agent was known.
Compounds. The drugs and investigational agents: BAY 2416964 (NSC825713), GNF351 (NSC835774), CH-223191 (NSC835775), CPI-455 (NSC825282), aza-TdCyd (NSC777586), decitabine (NSC127716), belinostat (NSC758774), entinostat (NSC756642), pevonedistat (NSC761192), tazemetostat (NSC777109), talazoparib (NSC765396), olaparib (NSC753686), selinexor (NSC780203), nedisertib (M3814, NSC802822), bortezomib (NSC756655), venetoclax (NSC766270), doxorubicin (NSC123127), elimusertib (BAY189344, NSC800525), ceralasertib (AZD6738, NSC777638), TAK-243 (NSC785004), alisertib (NSC759677), etoposide (NSC141540), topotecan (NSC609699), eribulin (NSC707389), gemcitabine (NSC613327), carboplatin (NSC241240), cisplatin (NSC119875), and SN-38 (NSC673596) were obtained from the National Cancer Institute (NCI) Developmental Therapeutics Program Chemical Repository (32). The FDA-approved anticancer drug set is available from the Developmental Therapeutics Program at https://dtp.cancer.gov/organization/dscb/obtaining/available plates.htm. […] The stock solutions were prepared in dimethyl sulfoxide (DMSO, Sigma-Aldrich, St. Louis, MO, cat. D2650), except for the platinum compounds which were prepared in saline (Quality Biological, Gaithersburg, MD, cat. 114-055-101), at 800-fold the tested concentration and stored at -70 degrees C prior to their use. All drugs and investigational agents were tested over a range starting from a high concentration at or near the clinical Cmax and decreasing in half-log increments. If the clinical Cmax for an agent had not been determined, the highest concentration tested was 10 microM (Table 1).
Cell Culture. All cells were maintained in an incubator at 37 degrees C and 5% CO2 with 95% humidity. The PDC lines were cultured according to standard operating procedures established by the NCI PDMR (https://pdmr.cancer.gov). Briefly, all PDCs were thawed and cultured in Matrigel-coated flasks prepared with a working solution of 1X Ham's F-12 nutrient mix, without supplementation (Invitrogen, Waltham, MA, cat. 11765054), 100 U/mL penicillin-streptomycin (Invitrogen, cat. 15140122), and 2.5% Matrigel (Corning Inc., Corning, NY, cat. 354248) for the first three passages. All PDCs were cultured in complete DMEM/F-12 media containing advanced DMEM/F-12 (Invitrogen, cat. 12634028), 4.9% defined fetal bovine serum, heat inactivated (HyClone Laboratories Inc., Logan, UT, cat. SH30070.03HI), 389 ng/mL hydrocortisone (Sigma-Aldrich, cat. H4001), 9.7 ng/mL human EGF recombinant protein (Invitrogen, cat. PHG0313), 23.4 microg/mL adenine (Sigma-Aldrich, cat. A2786), 97.3 U/mL penicillin-streptomycin (Invitrogen, cat. 15140122), 1.9 mM L-glutamine (Invitrogen, cat. 25030081), and 9.7 microM Y-27632 dihydrochloride (Tocris Bioscience, Bristol, United Kingdom, cat. 1254). The PDCs were cultured in complete DMEM/F12 media without 10 microM Y-27632 dihydrochloride for at least two passages prior to the screen. The established cell lines NCI-H1341 and […] were cultured in DMEM/F-12, HEPES (Invitrogen, cat. 11330032), 5% defined fetal bovine serum (HyClone Laboratories Inc., cat. SH30070.03), ITS premix universal culture supplement [insulin (5 microg/mL), transferrin (5 microg/mL), and selenious acid (5 ng/mL)] […]
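Also: compound exposure lasted 7 days; 100% = DMSO vehicle control growth.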

Which results are given for Cc1cncc(-c2nc(NCCc3c[nH]c4ccccc34)c3ncn(C(C)C)c3n2)c1?
viability, T/C (compound alone 0.1 µM): 97.5, 101 (2×), 94.6, 92.4, 95.6, 91, 104, 103, 112, 121, 107, 84.9, 94.8, 88.5, 90.2, 91.3, 97.7, 94.9, 102%; viability, T/C (compound alone 1 µM): 94.6, 101 (2×), 126, 111, 102, 103, 96, 96.2, 109, 110, 125, 99.9, 99.2, 108, 96.4, 98.3, 105, 106, 100%; viability, T/C (compound alone 3.16 µM): 104, 92.1, 97.3, 116, 99.4, 117, 102, 93.5, 96.5, 107 (3×), 95.8, 98.3, 95, 96.3, 90.2, 79, 97.5, 86%

How did the viability, T/C (compound alone 0.316 µM) turn out when CC(CO)NC(=O)c1cc(-c2ccc(Cl)cc2)nn(-c2cnn(C)c2)c1=O (stereo unspecified) was run?
Its viability, T/C is 107, 86, 93.6, 87, 94.8, 104, 101 (3×), 96.1, 96.4, 96, 93.1, 93.2, 116 (2×), 97.5, 103, 111, 102, 115%.

And the viability, T/C (compound alone 1 µM)?
The viability, T/C was 100 (2×), 82.9, 92.3, 82.1, 107, 92.4, 102 (2×), 89.8, 113, 101, 104 (2×), 94.6, 98.3, 111, 112, 90.6, 95.4, 106%.

And the viability, T/C (compound alone 3.16 µM)?
The viability, T/C was 104 (3×), 82.9, 87.2, 114, 91.8, 88.4, 100, 89, 103, 98.1, 102, 113, 101, 96.6, 107, 82.4, 86.2%.

What about the viability, T/C (compound alone 10 µM) of the same compound?
The viability, T/C was 122, 90.1, 90.2, 111 (3×), 104, 109, 93, 114, 102, 93.1, 93.8, 106, 101, 108, 107, 91.2, 89%.

What does the source list for Cc1ccccc1N=Nc1ccc(NC(=O)c2ccnn2C)c(C)c1?
viability, T/C (compound alone 0.1 µM): 102 (2×), 82.8, 106 (2×), 101 (3×), 96.6, 89.5, 94.5, 107, 117, 95.4, 104, 97.3, 92.2, 90.3, 94.9, 108%; viability, T/C (compound alone 0.316 µM): 97.4, 95.5, 107 (2×), 104, 96.2, 97.5, 94.9, 99, 106 (2×), 99.5, 101 (2×), 108, 103, 102, 80.6, 98.5, 105%; viability, T/C (compound alone 3.16 µM): 106, 82.9, 105, 95.6, 89.8, 103 (3×), 93.9, 98.5, 94.4, 96.8, 90.3, 94.9, 92.9 (2×), 89.2, 80.8, 86.1, 94.8%; viability, T/C (compound alone 10 µM): 101, 81.4 (2×), 93.4, 81, 91.9, 98.1, 92.5, 74.1, 89.6, 81.8, 90.4, 79.1, 97.1, 104, 82.2, 90.1, 95.7, 79.4, 93.8%
